Key:
[1] = tested on: Human melanoma cells (SKMEL28); experiment: Cytotoxicity of human LAK cells against melanoma cells, LDH release; format: cell-based; conditions: 0.1-10 μg/ml CM-24, 24 hours
Method: FIG. 9. Anti-CEACAM1 antibodies increase the cytotoxicity of human LAK cells against human melanoma cells. Human LAK cells were incubated with CM-24 in different concentrations for 30 minutes at 37° C. Human melanoma cancer cells (SKMEL28) were added for an incubation of 24 hours. Results represent an average of % cytotoxicity ±SE as determined by classical LDH release assay from triplicate wells per treatment. * P≤0.05 paired T-test compared to effectors+target cells with medium only.
(§1) • A. Anti-CEACAM1 antibodies increase the cytotoxicity of human LAK cells against human melanoma cells: PBMC cells were isolated from a healthy donor followed by activation with IL-2 (500 or 1000 units/ml) for 3 days to generate a population of human LAK cells. Then, the human LAK cells were incubated with 0.1 μg/ml, 0.5 μg/ml, 2.5 μg/ml, 5 μg/ml or 10 μg/ml of an anti-CEACAM1 antibody (CM-24) for 30 minutes at 37° C. Human melanoma cells (SKMEL28) were added for an incubation of 24 hours, after which cytotoxicity was determined. […] PBMC cells were isolated from a healthy donor followed by activation with IL-2 (500 units/ml) for 7 days to generate a population of human LAK cells. Then, the human LAK cells were incubated with 0.1 μg/ml to 10 μg/ml of an anti-CEACAM1 antibody (CM-24) as indicated, for 30 minutes at 37° C. […] Granzyme B secretion was measured by ELISA. […] IFN-γ secretion was measured by ELISA.

[2] = tested on: IFN-γ secretion of human LAK cells; experiment: IFN-γ secretion of human LAK cells with lung cancer cells, ELISA; format: cell-based; conditions: with H358 or H460 cells, 24 hours
Method: FIGS. 11A and 11B. Anti-CEACAM1 antibodies enhance IFN-γ secretion of human LAK cells in the presence of human cancer cells. Human LAK cells were incubated with CM-24 in different concentrations for 30 minutes at 37° C. Human lung cancer cells H358 (FIG. 11A) or H460 (FIG. 11B) were added for an incubation of 24 hours. IFN-γ secretion was measured by ELISA. Results represent the mean+S.E of Granzyme B release values from 3 repeats per treatment. *P≤0.05 paired T-test, compared to effectors+target cells with medium only.
as §1, with “cells.” for “cells. Then, the human LAK cells were incubated with 0.1 μg/ml to 10 μg/ml of an anti-CEACAM1 antibody (CM-24) as indicated, for 30 minutes at 37° C.”

CEACAM1 on human TIL = molecular target: T1, CEACAM1 on human TIL (Homo sapiens, UniProt P13688); experiment: CEACAM1 receptor occupancy on TIL isolated from lungs, flow cytometry with QuantiBrite; format: in vivo
T1 construct: endogenous in cells; host or cells: human tumor infiltrating lymphocytes (TIL) isolated from lungs of SCID-NOD mice
T1 sequence (P13688 35-526): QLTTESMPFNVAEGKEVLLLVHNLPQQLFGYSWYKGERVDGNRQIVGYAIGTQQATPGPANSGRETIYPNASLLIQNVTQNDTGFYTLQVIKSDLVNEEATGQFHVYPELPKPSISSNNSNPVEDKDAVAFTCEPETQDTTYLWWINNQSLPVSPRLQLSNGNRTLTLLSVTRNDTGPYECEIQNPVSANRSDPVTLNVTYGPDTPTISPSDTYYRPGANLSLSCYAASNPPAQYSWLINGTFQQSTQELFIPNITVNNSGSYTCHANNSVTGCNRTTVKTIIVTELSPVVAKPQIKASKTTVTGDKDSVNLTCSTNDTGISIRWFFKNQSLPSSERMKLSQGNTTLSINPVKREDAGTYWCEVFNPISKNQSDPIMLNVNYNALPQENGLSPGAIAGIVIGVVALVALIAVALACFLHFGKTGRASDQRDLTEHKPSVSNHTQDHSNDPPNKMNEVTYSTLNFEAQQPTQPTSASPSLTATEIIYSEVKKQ
Method: FIG. 14 is a bar histogram presenting the percentage of CEACAM1 receptor occupancy in TIL cells isolated from the lung lesions model.
At termination day, a flow cytometry based assay in combination with a QuantiBrite KIT was used in order to determine CEACAM1 receptor occupancy by CM-24 in human TIL isolated from the lungs of the treated mice. […] Examination of CEACAM1 RO values was performed using a flow cytometry based assay using PE conjugated CM-24 antibody and a QuantiBrite Kit (BD) Results represent average±SE of RO values on TIL isolated from the lung of 8-9 mice per treatment group. Data was analyzed using Kaluza software.

[3] = tested on: melanoma cells (cell line MEL526); experiment: Melanoma lung lesion model with human TIL; format: in vivo, SCID-NOD mice
Method: FIG. 13A presents pictograms of lungs removed from mice engrafted with melanoma cells and treated according to the treatment groups indicated in the figure; FIG. 13B presents the average tumor weight of each treatment group; and FIG. 13C presents the number of lesions per mouse of each treatment group.
SCID-NOD mice were engrafted IV with 5×10^6 melanoma cells (cell line MEL526) and were treated for 44 days according to the treatment groups indicated in FIGS. 13A-13C. Antibodies were given twice a week by IV injection and 10×10^6 TIL were administered IV every 10 days. At day 49 the mice were sacrificed and the lungs were removed, photographed (FIG. 13A), weighed (FIG. 13B) and the lesions were counted (FIG. 13C). FIG. 13A—Digital photos of the mice lungs immediately after harvest. FIG. 13B—Tumor weight was calculated by subtracting the lung weight of the naïve mice from the average lung weight of the different treatment groups. The results represent the average of tumor weight ±SE from 7-8 mice per treatment group. FIG. 13C—The number of lung lesions in individual mice in the various groups; the black lines represent group medians; lungs with uncountable lesions were scored as 100. Paired T test was used to calculate statistical significance between the groups * P≤0.05, ** P≤0.025.

[4] = Safe clinical starting dose from MABEL of mouse tumor xenograft models; conditions: comprising a 10 fold safety factor
Method: The safe clinical starting dose for CM-24 based on the MABEL determined from the in vivo experiments in the mouse tumor xenograft models results is in the range of 0.2-1 mg/kg, comprising a 10 fold safety factor.

B1: CM-24: back-mutated humanized IgG4 anti human CEACAM1 monoclonal antibody; light chain SEQ ID NO: 52, heavy chain SEQ ID NO: 53 (antibody)
heavy: QVQLVQSGAEVKKPGASVKVSCKASGYAFTNNLIEWVRQAPGQGLEWIGVINPGSGDTNYNEKFKGRVTMTADKSISTAYMELSRLRSDDTAVYYCARGDYYGGFAVDYWGQGTTVTVSSASTKGPSVFPLAPCSRSTSESTAALGCLVKDYFPEPVTVSWNSGALTSGVHTFPAVLQSSGLYSLSSVVTVPSSSLGTKTYTCNVDHKPSNTKVDKRV[letters of human IgG4 Fc with S228P (EU numbers) left out]
light: DIQMTQSPSSLSASVGDRVTITCRTSQDIGNYLNWYQQKPGKAVKLLIYYTSRLHSGVPSRFSGSGSGTDYTLTISSLQPEDIATYFCQQGKSLPRTFGGGTKVEIKRTVAAPSVFIFPPSDEQLKSGTASVVCLLNNFYPREAKVQWKVDNALQSGNSQESVTEQDSKDSTYSLSSTLTLSKADYEKHKVYACEVTHQGLSSPVTKSFNRGEC
cytotoxicity of human LAK cells [1]: significantly increases cytotoxicity
IFN-γ levels [2]: significantly increases IFN-γ levels in a dose-dependent manner
Receptor occupancy (RO) (CEACAM1 on human TIL; 1 mg/kg): 50%
Receptor occupancy (RO) (CEACAM1 on human TIL; 3 mg/kg): > 90%
Receptor occupancy (RO) (CEACAM1 on human TIL; 6 mg/kg): > 90%
Receptor occupancy (RO) (CEACAM1 on human TIL; 10 mg/kg): > 90%
number of lung lesions, group median ([3]; 1 mg/kg): 5
tumor growth inhibition (TGI) ([3]; 1 mg/kg IV twice a week): 84%
number of lung lesions, group median ([3]; 3 mg/kg): 6
tumor growth inhibition (TGI) ([3]; 3 mg/kg IV twice a week): 87%
number of lung lesions, group median ([3]; 6 mg/kg): 3
tumor growth inhibition (TGI) ([3]; 6 mg/kg IV twice a week): 90%
number of lung lesions, group median ([3]; 10 mg/kg): 2
tumor growth inhibition (TGI) ([3]; 10 mg/kg IV twice a week): 93%
number of lung lesions per lung ([3]; all CM-24 doses): ≤ 10
safe clinical starting dose based on the MABEL [4]: 0.2 to 1 mg/kg

Source: patent US11866509B2, “Humanized antibodies against CEACAM1” (Famewave Ltd., priority 2014, dated 2024)
